From ChEMBL document CHEMBL4888484, “Replenishing the malaria drug discovery pipeline: Screening and hit evaluation of the MMV Hit Generation Library 1 (HGL1) against asexual blood stage Plasmodium falciparum ,using a nano luciferase reporter read-out” (2022)
Screen size: about 150,000 compounds; about 540 (0.36%) showed an effect of 50% or more. This is one part of the list.

Tested on: Plasmodium falciparum
Assay: Primary screen in NF54 nanoGlo assay, in single point, at 2uM, 72h; a lower Z score goes with more inhibition
Format: functional, Erythrocyte
Details: timepoint 72 hour

| SMILES | % Inhibition [%] | Z score |
| --- | --- | --- |
| C[C@H](OC(=O)c1cnns1)c1ccccc1Cl | 4 | -0.69 |
| COc1cc(C)cc(NC(=O)N2CCC[C@@H]2c2csc(C)n2)c1C | -5 | 0.58 |
| CN(C)C1(CNC(=O)CCc2ccc(F)cc2)CCCC1 | -1 | 0.2 |
| O=C1CCCN1CCCC(=O)N1CCC2(CCCCCC2)C1 | -12 | 1.73 |
| CCOc1ccc(N(C)Cc2nc3ncc(Br)cc3[nH]2)cc1 | -8 | 0.99 |
| CC(C)C[C@H]1COCCN1C(=O)NCc1cccc(C(F)(F)F)n1 | 5 | -0.64 |
| COc1cc([C@@H]2CC(=O)Nc3ccc4nsnc4c32)ccc1O | -6 | 0.9 |
| CCC(CC)C(=O)Nc1ccc(Oc2c(C)c(C(=O)O)nn2C)c(S(=O)(=O)N[C@@H](C)CC)c1 | 3 | -0.4 |
| CCC#CCN1CCC(CNC(=O)c2cccc(C)n2)CC1 | 2 | -0.33 |
| CC[C@@](C)(CC(=O)O)NC(=O)c1cc(C)ccc1F | -9 | 1.16 |
| CNC(=O)c1ccc(Cn2ncc(N(C)C)cc2=O)cc1 | -4 | 0.69 |
| Cc1cccc(CN2CC=C(c3noc(CCC(=O)N4CCC(N5CCCCC5)CC4)n3)CC2)c1 | -2 | 0.25 |
| Cc1ccc(=O)n(CCNC(=O)c2cncc(Br)c2)n1 | -17 | 3.06 |
| O=C(NCc1ncc[nH]1)c1cc(COc2c(F)cccc2F)on1 | -9 | 1.9 |
| COc1ccc(CCC(=O)N2CCCN(c3ccc4nnc(C)n4n3)CC2)cc1 | -6 | 0.64 |
| CCCCN1CCN(C(=O)c2oc3c(Cl)cc(C)cc3c2C)CC1=O | -16 | 2.98 |
| CCCN(Cc1c(CC)nn(-c2ccc(F)cc2)c1N1CCN(C(C)C)CC1)C(=O)COCc1ccccc1 | -14 | 1.88 |
| Cc1nnc2n1C[C@@H](CNc1nc(C3CCOCC3)ns1)CC2 | -10 | 1.34 |
| COc1ccc(/C=C/c2ccc3c(c2)C(=O)N2C[C@@H](NC(=O)CC(C)(C)CC(=O)O)C[C@H]2C(=O)N3)cc1 | -10 | 1.58 |
| Cc1ccc(C)c([C@@H]2CCCN2S(=O)(=O)CCc2scnc2C)c1 | 2 | -0.23 |
| CN(C)Cc1ccc(C(=O)Nc2ccnn2[C@H]2CCOC2)cn1 | 1 | -0.19 |

| SMILES | % Inhibition [%] | Z score |
| --- | --- | --- |
| O=C(NCCc1cc(F)ccc1F)N1CCN2CCOC[C@@H]2C1 | -7 | 1.11 |
| CC(C)(C(=O)Cn1cc(S(C)(=O)=O)ccc1=O)c1ccccc1 | -11 | 1.57 |
| Cc1ccnn1CC(=O)N1C[C@H]2CC[C@@H](C1)N(Cc1cscn1)C2=O | 4 | -0.5 |
| Cc1ccccc1OC[C@H](O)C(=O)NCCN(C)S(C)(=O)=O | -9 | 0.87 |
| Cc1c(NC(=O)c2coc(CN)c2)cccc1N1CCOC1=O | -7 | 0.97 |
| O=C1CCC(=O)N1CN(CN1C(=O)CCC1=O)C1CCCCC1 | -5 | 0.62 |
| C[C@](O)(CNC(=O)N1CCNC1=O)c1cc2ccccc2s1 | -12 | 1.55 |
| CC(C)Cc1noc(CN(C)C(=O)c2ccc[nH]2)n1 | -21 | 2.06 |
| O=C1CCCc2[nH]c(=O)c(C(=O)NCc3ccc4c(c3)OCO4)cc21 | -8 | 1.26 |
| CC1(C)C(Nc2ccncc2Cl)C2CCOC21 (stereo not drawn) | -12 | 1.86 |
| Cc1cc(NC(=O)CCc2ccco2)n(C)n1 | -9 | 1.12 |
| OCC(CNc1cnccn1)C1CCOC1 (stereo not drawn) | 3 | -0.32 |
| O=C(Cc1ccccc1F)N[C@@H]1CN(c2ccncn2)C[C@H]1CO | -5 | 0.78 |
| COC(C(=O)N1C[C@@H](O)C[C@H]1CO)c1ccccc1C(F)(F)F (stereo partly drawn) | 2 | -0.22 |
| CCN(CC(=O)Nc1ccc2c(c1)OCCO2)C(=O)Cc1ccccc1F | -9 | 1.61 |
| Cc1occc1C(=O)Nc1ccc(N2CCOCC2)cc1 | 33 | -3.76 |
| Cc1nc2ncnn2c(N2CCC3(CCCCCC3)C2)c1C | 3 | -0.34 |
| CC(C)[C@H]1C(=O)N(C)CCN1C(=O)c1cccc(OCCc2ccccc2)c1 | -3 | 0.35 |
| O=C(c1cc(-c2ccccc2)on1)N1CCCCC[C@H]1c1cccc(F)c1 | 3 | -0.39 |
| O=C(Cc1ccccn1)NC[C@H]1CCN(C2Cc3ccccc3C2)C1 | -10 | 1.4 |
| CCC1(CC)C[C@@H]1C(=O)N1CCC(n2cc(C3CCCCC3)nn2)CC1 | -10 | 1.89 |

| SMILES | % Inhibition [%] | Z score |
| --- | --- | --- |
| C=CCN1CC[C@H](Oc2ccc(C#N)cc2OC)C1=O | -14 | 1.23 |
| C[C@@H](c1ccccc1F)N1CCN(C(=O)CCn2cncn2)CC1 | -16 | 1.68 |
| COc1ccc(CCOC(=O)Nc2ccccc2)cc1OC | 6 | -0.69 |
| COc1ccc2cc(S(=O)(=O)NC3CC(C)(C)NC(C)(C)C3)ccc2c1 | -8 | 1.59 |
| CCc1ccccc1OC1CN(C(=O)CCn2ccc(C)n2)C1 | -17 | 2.31 |
| COC(=O)C[C@H](c1c(O)ccc2nsnc12)C1CCCCC1 | 3 | -0.4 |
| CN1CCN(c2cc(N3CCN(C(=O)Cc4ccc(F)cc4)CC3)ncn2)CC1 | -4 | 0.59 |
| Cc1ccc(C(=O)N2CCC[C@H]2c2nc(CCOCC3CCOCC3)no2)s1 | -5 | 0.71 |
| CC1CCN(C(=O)c2cc(C3CC3)on2)C(c2ccco2)C1 (stereo not drawn) | -2 | 0.34 |
| Cc1occc1C(=O)N[C@@H](C)c1cnn(C)c1C | 7 | -0.91 |
| CCO[C@H]1COC[C@@H]1NC(=O)COc1ccc(Cl)cc1Cl | 2 | -0.24 |
| CCC(=O)N1CCC[C@@](NC2CCCCC2)(c2nnnn2C2CCCC2)C1 | -9 | 1.18 |
| Cc1ccc(C(=O)Nc2ccc(NCc3ccccn3)cc2)c(O)c1 | -9 | 1.4 |
| Cc1cc(C)c2c(c1)C1(NC(Cc3c[nH]c4ccccc34)[C@H]3C(=O)N(c4ccccc4)C(=O)[C@H]31)C(=O)N2 (stereo partly drawn) | 28 | -3.14 |
| Cn1cnnc1C1CCN(Cc2cc(-c3ccccc3)ccc2OCC(=O)O)CC1 | 5 | -0.57 |
| CC(C)c1nc([C@H]2CN(C(=O)Cc3cccnc3)CC23CCOCC3)no1 | -7 | 0.97 |
| CC[C@@](C)(C(=O)NC1CCCC1)N(Cc1ccco1)C(=O)c1ccc2c(c1)OCO2 | 40 | -5.15 |
| Cc1ccc(NC(=O)NCCC2CCN(S(=O)(=O)c3ccccc3)CC2)cc1C | 4 | -0.59 |
| Cc1cc(S(=O)(=O)[C@H]2CS(=O)(=O)C[C@@H]2NC2CCCCCC2)ccc1F | -12 | 1.58 |
| CCOC[C@H](C)OC(=O)c1cn(C)nc1C | -19 | 2.74 |
| CCCCCn1cc(C2CCN(S(=O)(=O)c3cccc(C(F)(F)F)c3)CC2)c2ccccc21 | 2 | -0.28 |

| SMILES | % Inhibition [%] | Z score |
| --- | --- | --- |
| Cc1cc(N2CC[C@H](OCCN3CCCCC3)C2)ncn1 | -6 | 0.8 |
| O[C@H]1[C@H](n2cc(-c3cccc(F)c3)nn2)c2ccccc2C12CCNCC2 | 3 | -0.59 |
| CN1CCN(Cc2nnnn2C(C)(C)C)CCC1=O | -9 | 0.74 |
| C[C@]1(C(=O)N2CCCc3occc3C2)CCC(=O)NC1 | -12 | 1.58 |
| CNc1nc(NCC(C)(C)OC)ncc1Br | -13 | 1.49 |
| COc1ccc([C@@H](NCC(=O)N2CCN(Cc3ccc4c(c3)OCO4)CC2)c2ccccc2)cc1 | -10 | 1.1 |
| Cc1nnsc1C(=O)NC[C@H](O)c1ccc(-c2ccsc2)cc1 | 3 | -0.38 |
| NC(=O)N1CCCN(C(=O)c2cc(C3CC3)on2)CC1 | 0 | 0.01 |
| COc1cc(-c2ncc(C(=O)NC[C@H]3CCCO3)c(N3CCC(C)CC3)n2)cc(OC)c1OC | -7 | 1.32 |
| COc1ccc(NC(=O)C2=Cc3cc(Cl)cc(OC)c3OC=C2)cc1 | 39 | -5.21 |
| Cc1nc2ccc(F)cc2c(=O)n1CC(=O)Nc1cccc(C(=O)c2nccn2C)c1 | -14 | 1.7 |
| CCn1nccc1-c1csc(S(=O)(=O)Nc2ccc(OC)c(F)c2)c1 | -11 | 1.39 |
| CC(=O)N1CCCN(C(=O)CCc2ccccc2F)CC1 | -7 | 1.02 |
| CS(=O)(=O)N1C[C@H]2CC[C@@H](C1)N(C(=O)c1ccc(Cl)s1)C2 | -11 | 1.33 |
| COCc1noc(CN[C@@H](C)CCn2ccnc2C)n1 | -3 | 0.63 |
| CCN(CCN(C)C)C(=O)c1noc2c1CCCC2 | -3 | 0.54 |
| CCOc1cc2c(cc1CN(C)Cc1noc(C)n1)CCC2 | -16 | 2.01 |
| c1csc([C@H]2CCCN(c3nccc4occc34)C2)n1 | -1 | 0.22 |
| Cc1cc(NC(=O)C(C)N2CCOC(c3ccc(F)cc3)C2)no1 (stereo not drawn) | 13 | -1.74 |
| COCC[C@]1(c2noc(C3CC3)n2)CCCN(S(=O)(=O)c2ccc3c(c2)CCCC3)C1 | -4 | 0.66 |
| CCN(C1CCCCC1)S(=O)(=O)c1ccc(N2CCCCS2(=O)=O)cc1 | -13 | 1.32 |
